Data published in publication PMC6919601, “Identification of Plasmodium dipeptidyl aminopeptidase allosteric inhibitors by high throughput screening” (PLoS ONE, 2019).
Screen size: about 110,000 compounds; about 230 (0.21%) showed an effect of 50% or more. Some of the results follow.

molecular target: DPAP1 (Plasmodium falciparum, UniProt Q8IIJ9); assay: primary screen, percent inhibition; read by cleavage of a fluorogenic dipeptide substrate; higher = more effect of the substance; parameters: species or system P. falciparum D10 trophozoite lysates; single well
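Also: 30 min substrate incubation versus DMSO and 10 µM JCP410 controls.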

Chain of DPAP1 (Q8IIJ9 whole entry, looked up): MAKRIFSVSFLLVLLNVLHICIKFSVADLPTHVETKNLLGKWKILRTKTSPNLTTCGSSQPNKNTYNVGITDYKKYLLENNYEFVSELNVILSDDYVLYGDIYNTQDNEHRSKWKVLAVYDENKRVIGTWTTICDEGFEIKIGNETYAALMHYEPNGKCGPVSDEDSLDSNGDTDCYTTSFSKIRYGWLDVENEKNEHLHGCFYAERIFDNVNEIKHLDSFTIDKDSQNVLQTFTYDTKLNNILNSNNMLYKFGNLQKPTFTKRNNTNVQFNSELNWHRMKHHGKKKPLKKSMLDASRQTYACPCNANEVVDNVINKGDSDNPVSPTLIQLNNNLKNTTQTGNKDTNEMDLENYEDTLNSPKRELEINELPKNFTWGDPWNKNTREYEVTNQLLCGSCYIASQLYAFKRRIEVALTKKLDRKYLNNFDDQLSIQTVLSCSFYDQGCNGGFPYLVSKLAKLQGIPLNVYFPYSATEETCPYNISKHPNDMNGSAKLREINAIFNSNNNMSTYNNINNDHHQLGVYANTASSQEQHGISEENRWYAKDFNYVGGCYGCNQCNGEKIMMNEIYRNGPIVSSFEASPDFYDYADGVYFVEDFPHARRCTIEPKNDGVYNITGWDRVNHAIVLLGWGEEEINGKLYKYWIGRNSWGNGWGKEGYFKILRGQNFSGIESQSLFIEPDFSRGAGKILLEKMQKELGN

In order of falling “% Inhibition @ 10 uM” value:
1. Cc1cc(C)c2nc(N3CCCC(C(=O)NCCCN4CCc5ccccc5C4)C3)sc2c1 (stereo not shown)  7.91%
2. CC(=O)NC(=O)/C(C#N)=C/Nc1ccccc1C  7.12%
3. CC(CNC(=O)c1cc(S(=O)(=O)N2CCOCC2)cn1C)c1ccccc1 (stereo not shown)  5.86%
4. CN(C)C(=O)CCc1nc(-c2ccc(Cl)cc2)no1  5.17%
5. NC(=O)CCS(=O)(=O)CCN1CCOCC1  4.65%
6. CC(C)P(=S)(c1c(F)c(F)nc(F)c1F)C(C)C  3.98%
7. O=C(COc1ccccc1)n1nc(-c2ccccc2)nc1NCc1ccco1  3.93%
8. O=C(Nc1ccc(S(=O)(=O)N2CCc3ccccc32)cc1)c1ccc(Cl)cc1  3.8%
9. OCc1nc2ccccc2n1CC(O)COc1ccccc1 (stereo not shown)  3.53%
10. COc1ccc2c3ncn(CCCN4CCCCCC4)c(O)c-3nc2c1  3.24%
11. CCN1C(=O)C(=CNc2ccc(Cl)cc2Cl)C(=O)N(CC)C1=O  3.05%
12. CCO/C(O)=C1/C(C)=Nc2nc(SCc3cccnc3)nn2C1c1ccc(OC)cc1 (stereo not shown)  2.97%
13. CCOCCOC(=O)C1=C(C)NC(=O)NC1c1ccc(O)cc1 (stereo not shown)  2.7%
14. Cc1ccc(F)c(NC(=O)c2ccc(Cn3cc(Cl)cn3)cc2)c1  2.7%
15. Cc1cccc(NC(=O)c2sc3nc(-c4cccs4)ccc3c2N)c1  2.69%
16. CCc1nc2ccc(C(=O)NC3CCN(Cc4ccccc4)CC3)cc2nc1CC  2.61%
17. N#Cc1c(NC(=O)Cn2c(=O)sc3ccccc32)sc2c1CCCC2  2.38%
18. COc1cccc(CNc2nc3ccccc3n2CCN2CCCCC2)c1OC  2.31%
19. Cc1cc(C(=O)NC(C)CCc2ccco2)c2c(C)nn(-c3ccccc3)c2n1 (stereo not shown)  2.12%
20. COc1cccc(N2C(=O)N(c3ccccc3Cl)C3CS(=O)(=O)CC32)c1 (stereo not shown)  2.01%
21. Cc1ccccc1OCC(=O)Nc1cc(Cl)ccc1Cl  1.91%
22. Cc1c(C(=O)N2CCOCC2)oc2ccc3c(c12)C(O)CC(C)(C)O3 (stereo not shown)  1.65%
23. CC1C(=O)CC(c2ccccc2)OC1c1ccccc1 (stereo not shown)  1.63%
24. Cc1ccc(CN2CCc3ccccc3C2)o1  1.62%
25. CCc1nn(C(C)C(=O)NCCCN(CC)CC)c(=O)c2cc3occc3n12 (stereo not shown)  1.38%
26. O=c1oc2cc(O)c(Cl)cc2c2c1CCCC2  1.37%
27. Cc1onc(-c2ccccc2)c1C(=O)N(C)C  1.27%
28. CCOc1ccc(C2/C(=C(\O)OC3CC(C)CCC3C(C)C)C(C)=Nc3ncnn32)cc1OC (stereo not shown)  1.02%
29. Cc1ccc(C)c(C(=O)C2=C(O)C(=O)N(CCCn3ccnc3)C2c2ccccc2)c1 (stereo not shown)  0.83%
30. Cc1ccnc(NCc2ccc(O)c3ncccc23)c1  0.726%
31. COc1ccc(Cl)cc1NC(=O)COc1ccc(S(=O)(=O)NC(C)C)cc1  0.605%
32. Cc1sc(NC(=O)c2ccc(F)cc2)nc1C12CC3CC(CC(C3)C1)C2  0.177%
33. Cc1nc(SCC(=O)c2ccc(F)cc2)c2c(C)c(C)sc2n1  0.161%
34. CC1=C(C(=O)Nc2ccccc2F)C(c2cccc(Br)c2)C2=C(O)CCCC2=N1 (stereo not shown)  0.121%
35. CCc1ccc(C2CC(=O)NC(SC)=C2C#N)cc1 (stereo not shown)  0.121%
36. COc1cc([C@H]2NCC[C@@]3(O)CCCC[C@H]23)ccc1O  -0.0372%
37. COc1cc2c(cc1OC)C(c1ccccc1C(F)(F)F)NCC2 (stereo not shown)  -0.0372%
38. CCOC(=O)c1nnc(Cc2c(F)cccc2Cl)o1  -0.0709%
39. O=C(NCCCCNC(=O)c1cccs1)c1cccs1  -0.28%
40. CC1=C(C(=O)Nc2cc(C)ccn2)C(c2ccc(Cl)cc2)C2=C(O)CC(C)(C)CC2=N1 (stereo not shown)  -0.305%
41. Cc1nc(N2C(=O)C(O)=C(C(=O)c3cccs3)C2c2ccco2)sc1C (stereo not shown)  -0.512%
42. C=CCNc1nc(Cl)nc(NCCO)n1  -0.807%
43. NC(=S)N/N=C\c1ccc2c(c1)OCO2  -0.836%
44. CC(C)c1ccc(NC(=O)c2ccccc2Br)cc1  -0.969%
45. COc1ccc(CCNC(=O)c2cc3nc(-c4cccs4)cc(C(F)(F)F)n3n2)cc1OC  -1.1%
46. Cc1ccc(CNCCCSc2nnnn2-c2ccccc2)cc1  -1.11%
47. CC(C)Oc1ccc(C(CC(=O)N2CCCCC2)c2ccccc2)cc1 (stereo not shown)  -1.18%
48. CC(C)Oc1ccc(/C=C2\SC(=O)N(CC(=O)N3CCOCC3)C2=O)cc1  -1.22%
49. N#C/C(C(N)=O)=C(O)/C(O)=C\C(=O)c1ccccc1  -1.24%
50. CC(=O)c1ccc(NS(=O)(=O)c2ccc3ccccc3c2)cc1  -1.46%
51. COC(=O)C1=C(C)NC(=O)/C1=C\c1ccc(O)c(OC)c1  -1.6%
52. CCCCN(C)Cc1c(C)nc2ccc(Br)cc2c1O  -1.63%
53. CSc1nc(N)nc2sc3c(O)cc(O)nc3c12  -1.68%
54. CCc1ccc(S(=O)(=O)N2CCCN(S(=O)(=O)c3ccc(CC)cc3)CC2)cc1  -2.1%
55. Cc1ccc(Cc2c(C)nc3c(C(=O)NCc4cccnc4)cnn3c2C)cc1  -2.14%
56. CCCCC(=O)Nc1c(O)oc2ccccc2c1=O  -2.23%
57. Cc1ccc2cc(CCNS(C)(=O)=O)c(O)nc2c1C  -2.24%
58. Cc1cc(=O)oc(C)c1C(=O)OCC(=O)c1ccc(Cl)c(Cl)c1  -2.41%
59. CC(C)C(NC(=O)C1CCCCC1)C(=O)NCCc1ccccc1 (stereo not shown)  -2.49%
60. Cn1cc(C=O)c2cc(S(=O)(=O)N3CCCCC3)ccc21  -2.54%
61. CCN(CC)S(=O)(=O)c1ccc(NC(=O)c2cccc(S(=O)(=O)N3CCC(C)CC3)c2)cc1  -2.59%
62. CC(C)Cc1csc2ncnc(N3CCCCC3)c12  -2.6%
63. CC1CC(=O)C2=C(C1)OC(N)=C(C#N)C2c1ccccc1C(F)(F)F (stereo not shown)  -2.78%
64. NCC1CCN(S(=O)(=O)c2ccccc2)CC1  -2.84%
65. Cc1ccccc1-c1nc(CS(=O)CC(=O)N2CCC3(CC2)OCCO3)c(C)o1 (stereo not shown)  -2.85%
66. CCn1c(S)nnc1-c1csc2c1CCC(C)C2 (stereo not shown)  -2.9%
67. CC(C)CC1=NN2C(=N)/C(=C/c3ccc4c(c3)OCO4)C(=O)N=C2S1  -3.06%
68. CCOC(=O)CSc1cn2c(n1)CCC2  -3.13%
69. N#CC1=C(N)Oc2[nH]nc(-c3ccncc3)c2C1c1cccc(O)c1 (stereo not shown)  -3.19%
70. CCc1ccc(Oc2nc3c(C)cccn3c(=O)c2/C=C(\C#N)C(=O)NC2CCS(=O)(=O)C2)cc1 (stereo not shown)  -3.23%
71. COCC(C)NCc1cccc(F)c1 (stereo not shown)  -3.27%
72. Cc1cccc(Cn2nc(C)c(N)c2C)c1  -3.34%
73. Cc1ccc(S(=O)(=O)Nc2c(C)nc3nc(C)nn3c2O)cc1  -3.34%
74. CCOC(=O)N1CCC(NC(=O)C2CCN(c3nc4ccc(OCC)cc4s3)CC2)CC1  -3.35%
75. Cc1cccc(NC(=O)CSc2nc(N)cc(N)n2)c1  -3.37%
76. CC(C)Cc1nc2ccccc2n1C(C)C(=O)O (stereo not shown)  -3.53%
77. COc1cc(-c2nc3c(=O)[nH]c(=O)n(C)c3[nH]2)ccc1O  -3.53%
78. CC1CCCCN1CCC(=O)O (stereo not shown)  -3.64%
79. O=C(O)C1Cc2c([nH]c3ccccc23)C(c2cccc(Br)c2)N1 (stereo not shown)  -3.65%
80. CC1CCN(C2=NC(=O)/C(=C/c3ccc(O)cc3)S2)CC1  -3.65%
81. Cc1cccc(Cn2c(C)c(CNC3CCC(C)CC3)c(C(=O)O)c2C)c1 (stereo not shown)  -3.67%
82. Cc1cccn2cc(-c3ccc(NS(=O)(=O)c4ccccc4)cc3)nc12  -3.72%
83. O=C(c1cc(S(=O)(=O)N2CCOCC2)ccc1F)N1CCC2(CC1)OCCO2  -3.78%
84. Cc1nn(CC(=O)NCCCN2C(C)CCCC2C)c(=O)c2cc3occc3n12 (stereo not shown)  -3.79%
85. CCOc1ccc(OCC(=O)Nc2cc(Cl)ccc2OC)cc1  -4.02%
86. CCOC(=O)c1c(C)nc2c(C3CCCN3C)cccn12 (stereo not shown)  -4.35%
87. O=C(O)CC(NC(=O)C12CC3CC(CC(C3)C1)C2)c1ccc(Cl)cc1 (stereo not shown)  -4.49%
88. CC1CCN(S(=O)(=O)c2ccc3c(ccn3CC(=O)NCCc3ccccc3)c2)CC1  -4.65%
89. O=c1[nH]c(=O)n(CCc2ccccc2)c2c1CN(C1CCCCC1)CN2  -4.78%
90. CCOC(=O)NC1(C(F)(F)F)NC(=O)N(C2CCCCC2)C1=O (stereo not shown)  -5.2%
91. COCCCNC(=O)CN(c1ccc(Cl)cc1)S(C)(=O)=O  -5.4%
92. Cc1ccc(F)c(NC(=O)c2ccc(Cn3nc(C)cc3C)o2)c1  -5.69%
93. COc1ccc(/C=C/C(=O)NCCSc2nc3ccccc3s2)cc1  -6.17%
94. Cc1oc2cc3oc(=O)c(CCC(=O)NCc4ccc5c(c4)OCO5)c(C)c3cc2c1C  -6.29%
95. Cc1ccc(S(=O)(=O)N2CCN(C3=C(Cl)C(=O)c4ccccc4C3=O)CC2)cc1  -6.69%
96. C=CCn1c(SCCOc2ccccc2)nc2sc(C)c(C)c2c1=O  -6.69%
97. O=c1c2ccccc2nc(CNCc2ccc(F)cc2)n1-c1ccc(F)cc1  -6.81%
98. CCc1ccc(CN(C(=O)c2ccc(Br)cc2)C2CCS(=O)(=O)C2)cc1 (stereo not shown)  -7.5%
99. CC1CN(CN2C(=O)c3ccccc3C2=O)CC(C)O1 (stereo not shown)  -9.05%
100. O=C(c1ccc(N2C(=O)c3cccc4c(Br)ccc(c34)C2=O)cc1)N1CCOCC1  -9.66%
101. N=C(N)N(c1ccccc1)c1ccccc1  -10.4%
102. Cc1ccc(OCC(O)CN2CCN(c3ccccc3F)CC2)c(C)c1 (stereo not shown)  -10.7%
103. Cc1ccc(OCC(=O)Nc2cccnc2Cl)cc1  -12.2%
